The source of these data is article PMC3601332.

Protein sequences, listed by entry. Tags and fused reporters are not part of them. Lines headed by an entry give the natural chain unless they say otherwise; changes in a name come on top. Residues count along the entry.
UniProt O14763: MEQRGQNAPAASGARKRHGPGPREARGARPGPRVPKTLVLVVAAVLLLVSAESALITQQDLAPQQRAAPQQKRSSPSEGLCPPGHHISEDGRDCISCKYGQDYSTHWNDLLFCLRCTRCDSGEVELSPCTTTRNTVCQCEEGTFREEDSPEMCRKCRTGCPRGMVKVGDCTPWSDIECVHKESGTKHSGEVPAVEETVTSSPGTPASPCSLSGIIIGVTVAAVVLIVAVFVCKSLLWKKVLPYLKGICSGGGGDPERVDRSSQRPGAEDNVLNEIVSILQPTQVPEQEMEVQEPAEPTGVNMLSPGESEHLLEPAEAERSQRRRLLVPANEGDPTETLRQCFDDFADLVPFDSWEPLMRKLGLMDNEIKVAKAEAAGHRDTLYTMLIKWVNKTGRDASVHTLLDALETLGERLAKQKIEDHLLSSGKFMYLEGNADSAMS
TRAIL-R2 expressed on transfected 293T cells: residues 56-440 of O14763
TRAIL-R2:Fc: residues 56-210 of O14763
UniProt O00220: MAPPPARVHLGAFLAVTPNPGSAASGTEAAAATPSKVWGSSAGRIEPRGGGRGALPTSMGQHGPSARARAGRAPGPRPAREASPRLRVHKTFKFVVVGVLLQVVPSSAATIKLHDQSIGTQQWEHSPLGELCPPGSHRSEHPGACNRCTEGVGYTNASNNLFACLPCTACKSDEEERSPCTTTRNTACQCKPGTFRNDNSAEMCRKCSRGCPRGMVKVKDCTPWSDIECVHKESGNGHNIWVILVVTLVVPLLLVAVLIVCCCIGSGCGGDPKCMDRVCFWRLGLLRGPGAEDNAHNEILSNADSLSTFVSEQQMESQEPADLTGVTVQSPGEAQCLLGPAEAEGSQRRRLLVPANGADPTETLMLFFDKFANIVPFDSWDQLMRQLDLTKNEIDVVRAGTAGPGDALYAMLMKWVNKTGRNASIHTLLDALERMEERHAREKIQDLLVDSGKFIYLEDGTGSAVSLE
TRAIL-R1 expressed on transfected 293T cells: residues 24-468 of O00220
TRAIL-R1:Fc: residues 24-239 of O00220
UniProt Q9QZM4, residues 53-381: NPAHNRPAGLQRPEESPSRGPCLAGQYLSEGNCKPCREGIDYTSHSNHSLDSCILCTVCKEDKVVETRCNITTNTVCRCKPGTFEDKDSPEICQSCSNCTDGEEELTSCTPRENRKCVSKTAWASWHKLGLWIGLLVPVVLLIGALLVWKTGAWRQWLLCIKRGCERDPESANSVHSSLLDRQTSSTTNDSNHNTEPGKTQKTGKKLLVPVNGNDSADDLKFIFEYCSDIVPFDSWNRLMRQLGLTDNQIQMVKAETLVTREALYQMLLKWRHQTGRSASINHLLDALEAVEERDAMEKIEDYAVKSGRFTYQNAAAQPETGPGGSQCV

The target of one assay is TRAIL-R2:Fc (human) (UniProt O14763). Description: ELISA; binding assay between Fc-fusion proteins (Figure S3A); who was immobilised is not told in the main text; both purified.
For a further assay, the target named is TRAIL-R1:Fc (human) (UniProt O00220). Described as above.
The target of assay [1] is mouse TRAIL-R2 (mTRAIL-R2) on NIH 3T3 fibroblasts (mouse (endogenous in NIH 3T3)) (UniProt Q9QZM4). The experiment in a line: flow cytometry on cells; UL141:Fc binding to mouse NIH 3T3 fibroblasts, untransfected or transfected with hTRAIL-R2 (Figure S3B); only the binder purified. A general note: In flow cytometry, cells or beads pass a laser one at a time.
In assay [2] the target is hTRAIL-R2 expressed on transfected NIH 3T3 cells (human) (UniProt O14763). The assay is described as above.
Assay [3] deals with TRAIL-R1 expressed on transfected 293T cells (human) (UniProt O00220). The experiment in a line: flow cytometry on cells; UL141:Fc protein (~5 ug/ml) used to stain 293T cells transfected with all the known TNFRs; positive controls included for all receptor-ligand interactions (Figure S3C); only the binder purified.
For assay [4], the target named is TRAIL-R2 expressed on transfected 293T cells (human) (UniProt O14763). The assay is described as above.

No constants are given. Whether binding was seen depends on the method and setting. Some results given as binding are weak or reduced against the parent protein; the word gives no strength. Where a sequence is shown, tags or fusion partners need not be part of it.

B1: UL141:Fc (fusion protein of the UL141 ectodomain with the Fc region of human IgG1) (Fc fusion, UniProt Q6RJQ3 37-278)
chain: DIAEKMWAENYETTSPAPVLVAEGEQVTIPCTVMTHSWPMVSIRARFCRSHDGSDELILDAVKGHRLMNGLQYRLPYATWNFSQLHLGQIFSLTFNVSTDTAGMYECVLRNYSHGLIMQRFVILTQLETLSRPDEPCCTPALGRYSLGDQIWSPTPWRLRNHDCGMYRGFQRNYFYIGRADAEDCWKPACPDEEPDRCWTVIQRYRLPGDCYRSQPHPPKFLPVTPAPPADIDTGMSPWATR
B1: the binding result in the assay with TRAIL-R2:Fc (human) is “binds”; with TRAIL-R1:Fc (human), “binds”; in assay [1] it was “no binding”; in assay [2], “binds”; in assay [3], “no binding (tested: ∼5 μg/ml)”; in assay [4] it was “binds”.
